From the supplement of paper PMC11417369 come the findings set out here.

The other results are listed elsewhere or left out.

This test concerns PfSIP2 AP2 domain 1 (GST-tagged). Kind of test: gcPBM binding intensity (ln(normalized median fluorescence intensity)); higher = stronger DNA binding. A digest of the protocol:
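An Agilent 4 × 180k array carrying primer-extended double-stranded 36-bp intergenic genomic probes and negative controls received GST-tagged P. falciparum DNA-binding domains expressed in E. coli, about 25 μg on average, for 1 h. The binding buffer contained 1× PBS, 1% milk, 0.2 mg/ml BSA, 0.5% salmon testes DNA and 0.03% Triton X-100. Binding intensity is the top Masliner-normalised natural-log median intensity across replicate spots of either probe orientation, read after Alexa488 anti-GST antibody staining and a 488 nm scan.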
Turning to “AAAAAAAAAAAAAACACACACACACGCATACAAAAT [CACACA_site6794]”, the “gcPBM binding intensity (ln)” value is 7.5.

As for “TTATATCTTATAAAATGTACATAAAATATATAATAT [XGTACX_site7647]”, the “gcPBM binding intensity (ln)” value worked out at 7.18.

Take “ATATTTTTCTTAAGTACACACTAAATAGAAACTAAA [CACACA_site4191]”: the “gcPBM binding intensity (ln)” value came to 7.31.

For “ATTAATTATATAATATGTACATATTACAAATATATA [XGTACX_site1478]”, the “gcPBM binding intensity (ln)” value came out at 7.22.

As to “AATAATATAACAGAACAAAACTAAATATACACATAT [TGCATGCA_negctrl_site31]”, the “gcPBM binding intensity (ln)” value turned out to be 7.14.

Consider “TATTTCATAATAAATTGTACGCGTAGAAAACCATGA [XGTACX_site7506]”, for which the “gcPBM binding intensity (ln)” value came to 7.35.

Consider “TATATATATATAGATGCATGCAATTACATATAACAA [TGCATGCA_site118]”, for which the “gcPBM binding intensity (ln)” value came out at 9.05.

As to TTGTGTACATATTAAGTGCATATATATATATATATA, the “gcPBM binding intensity (ln)” value was found to be 9.85.

Take “ATTTTCTATATCTTTCAACACACAAATTTTTTTTTC [CACACA_site7918]”: the “gcPBM binding intensity (ln)” value was found to be 7.15.

On to “TACATCAAACAAGTATGTACATATATATATATATAT [XGTACX_site7415]”, for which the “gcPBM binding intensity (ln)” value was found to be 9.31.

For “GCATATGATGAGCATATAATCATAAGAAAAAAAAAA [CACACA_negctrl_site701]”, the “gcPBM binding intensity (ln)” value is 6.72.

With “AATAAATAGTAGTAGGTGCTACTATATTATATATAT [GTGCAC_site9452]”, the “gcPBM binding intensity (ln)” value worked out at 7.65.

On to “TATGTAATAATAAACGGTACACTATATTGTATGAAA [XGTACX_site4648]”, for which the “gcPBM binding intensity (ln)” value worked out at 7.08.

With “ATTATGAATTTTAATTGTACATTATTATAGAATGTA [XGTACX_site619]”, the “gcPBM binding intensity (ln)” value was 6.76.

Consider “AGTTATTTTTATATTTCACACACATATACTTTTACA [CACACA_site9357]”, for which the “gcPBM binding intensity (ln)” value worked out at 7.21.

“AATAATTCTTAAAGGTGTACAATATGTATATAAGAA [XGTACX_site595]”: the “gcPBM binding intensity (ln)” value worked out at 7.39.

In the case of “AAAAATTCTTCCCAAGCATGCGCGCGTAAAATATTT [TGCATGCA_site77]”, the “gcPBM binding intensity (ln)” value was determined as 6.67.

On to “AAATTTTTTATTAGTAGTACGCATAAATATATGTAT [XGTACX_site1934]”, for which the “gcPBM binding intensity (ln)” value was 7.22.

Consider “AAAAAAAAAAGAAAAGGTACACAGAATATATATATA [XGTACX_site6914]”, for which the “gcPBM binding intensity (ln)” value is 9.16.

Consider “AAAAAAATAAGACACACACACAAAAAAATAAAAATA [CACACA_site6357]”, for which the “gcPBM binding intensity (ln)” value was 6.83.

In the case of “ATATATATATCAAAATGTACAAAAATAGAATTTAAA [XGTACX_site8292]”, the “gcPBM binding intensity (ln)” value was 8.27.

With “CCTTTCCTAGCACATGCACACAAAAAAAAAAAAAAA [CACACA_site8396]”, the “gcPBM binding intensity (ln)” value was 7.9.

For “AAAATTAAAATATCACGTACGAAGAAAAAATTAAGA [XGTACX_site6437]”, the “gcPBM binding intensity (ln)” value came out at 6.96.

As for “TACACCCACCAACACACACACACACTAATAAAAAAA [CACACA_site8060]”, the “gcPBM binding intensity (ln)” value was determined as 7.64.

Consider “ATCTTTTTACTTAATACACACACACCCAAAAAAAAA [CACACA_site8221]”, for which the “gcPBM binding intensity (ln)” value was 7.78.

With “AAACGGCTATTAAAATGTACATGTAAATATATTAAA [XGTACX_site918]”, the “gcPBM binding intensity (ln)” value turned out to be 6.96.

Regarding “AATACATATGGGTGTACACATTATATATATATATAT [CACACA_site4601]”, the “gcPBM binding intensity (ln)” value was determined as 9.35.

Take “CATGAATATTTATACATGCACACTAAAATAAAGAAT [CACACA_site2412]”: the “gcPBM binding intensity (ln)” value was found to be 8.63.

“GAGGGTATAATAAAAGCACACACAAAGATATAAATA [CACACA_site9087]”: the “gcPBM binding intensity (ln)” value was found to be 7.22.

With “TATATATATATATACACACACACACCCCAAAGCGTA [CACACA_site64]”, the “gcPBM binding intensity (ln)” value was found to be 9.76.

For “ACATTTTGTAAAGAATGTACATATATATATATATTC [XGTACX_site8004]”, the “gcPBM binding intensity (ln)” value was determined as 7.33.

Take “AAAAAATGCGACATGTGTACACATATATATATATAT [XGTACX_site1679]”: the “gcPBM binding intensity (ln)” value is 9.79.

On to “GAAAATATTACATACACGCACACATTAATATATTTA [CACACA_site2604]”, for which the “gcPBM binding intensity (ln)” value was 7.32.

For “GTTTCTATTCACATTTTACACACGTCCATCGCATTT [CACACA_site9142]”, the “gcPBM binding intensity (ln)” value is 7.45.

Take “TTTTGTTGTATGATAATTCTTTTATCAATATGTCTT [TGCATGCA_negctrl_site567]”: the “gcPBM binding intensity (ln)” value came out at 6.63.

As to “ACCAAATTATCAAATGGTACACATAAAATAATAAAA [XGTACX_site865]”, the “gcPBM binding intensity (ln)” value stood at 7.12.

Consider “TAATTAACCTATGCATTCATATAGATACATAAATAT [CACACA_negctrl_site885]”, for which the “gcPBM binding intensity (ln)” value is 7.06.

For “AGATCATAATATTATACACACATTATGTATATGTAA [CACACA_site1490]”, the “gcPBM binding intensity (ln)” value worked out at 6.84.

Take “TGAATACATAAATATAGTACATATATATATATATTA [XGTACX_site8756]”: the “gcPBM binding intensity (ln)” value came to 7.37.

As to “TATAATATTATTTGAAGTACAAACATAAAAGAATTA [XGTACX_site3161]”, the “gcPBM binding intensity (ln)” value was found to be 7.13.

With “TACAAAAAATTATGGAGTACATATATAATATACAAT [XGTACX_site1004]”, the “gcPBM binding intensity (ln)” value amounted to 6.96.

Consider “GAACCATTTTTTGGTATACACACGTAATTATAGAAT [CACACA_site1851]”, for which the “gcPBM binding intensity (ln)” value worked out at 6.89.

Regarding “ATATACATATCATGTAGTACAATTTTTTTACTTTTT [XGTACX_site7988]”, the “gcPBM binding intensity (ln)” value was determined as 6.95.

For “CACTTTTTTTAAATGTGTACGTATATGAAAATATCA [XGTACX_site4854]”, the “gcPBM binding intensity (ln)” value stood at 7.15.
